Laboratory results from the supplement of paper PMC12217912.
This is one part of the list. The full chains were built here from the parent and the listed change. Values near 0.05 are background.

B1: TEV protease; numbered along this chain (parent)
chain: MGESLFKGPRDYNPISSSICHLTNESDGHTTSLYGIGFGPFIITNKHLFRRNNGTLVVQSLHGVFKVKDTTTLQQHLVDGRDMIIIRMPKDFPPFPQKLKFREPQREERICLVTTNFQTKSMSSMVSDTSCTFPSGDGIFWKHWIQTKDGQCGSPLVSTRDGFIVGIHSASNFTNTNNYFTSVPKNFMELLTNQEAQQWVSGWRLNADSVLWGGHKVFMVKPEEPFQPVKEATQL

Variants of: B1
Test: raw area under fraction-flipped curve 0-4 h after induction (AUC4h, not background-subtracted), DNA-recorder readout of cleavage of the substrate (dimensionless); higher = more cleavage of the substrate by the protease variant
Conditions: temperature: 34 °C; time window: 0-4 h after rhamnose induction
Description: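 In vivo DNA recorder in E. coli TOP10(DE3) ΔrhaA at 34 °C. Each TEVp single-site mutant (parent TEVp 0) is paired with a single-site variant of the 7-mer TEVs (canonical ENLYFQ|S). The substrate sits between flexible linkers in a Bxb1-sfGFP-TEVs-SsrA fusion, so cleavage stabilises Bxb1 and speeds flipping of a recombination array, read by NGS. The value is the raw area under the fraction-flipped curve over 0-4 h after rhamnose induction (AUC4h), with ≥20 reads per time point. It is not background-subtracted; inactive controls average about 0.047.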
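Note: Bxb1 expression induced with 0.2% (w/v) L-rhamnose at OD600 near 0.5, cultures sampled hourly, flipped fraction per protease–substrate barcode pair counted by paired-end Illumina sequencing.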

Row | Variant | area with substrate ENLYFQA | area with substrate ENLYFQC | area with substrate ENLYFQD | area with substrate ENLYFQF | area with substrate ENLYFQG | area with substrate ENLYFQH | area with substrate ENLYFQI | area with substrate ENLYFQK | area with substrate ENLYFQL | area with substrate ENLYFQM | area with substrate ENLYFQN | area with substrate ENLYFQP | area with substrate ENLYFQQ | area with substrate ENLYFQR | area with substrate ENLYFQS | area with substrate ENLYFQT | area with substrate ENLYFQW | area with substrate ENLYFQY | area with substrate ENLYFQE | area with substrate ENLYFQV
1 | Q151E | 0.142 | 0.128 | 0.062 | 0.065 | 0.0839 | 0.0769 | 0.0627 | 0.0603 | 0.0579 | 0.075 | 0.0839 | 0.0566 | 0.0657 | 0.0611 | 0.102 | 0.0536 | 0.0667 | 0.0685 |  | 
2 | Q151M | 0.116 |  | 0.0832 |  | 0.104 | 0.0762 | 0.069 |  | 0.0501 |  | 0.078 | 0.0772 |  | 0.0629 | 0.109 |  |  | 0.094 | 0.0662 | 0.0636
3 | C152P | 0.0625 |  |  |  | 0.0708 |  | 0.0551 | 0.0515 | 0.0637 | 0.0569 | 0.0862 |  | 0.06 | 0.0519 | 0.0601 | 0.0469 | 0.0579 | 0.0592 |  | 0.0608
4 | P155K | 0.0493 | 0.0587 | 0.0586 |  | 0.0513 | 0.0632 | 0.0496 | 0.0524 | 0.0578 | 0.0525 | 0.0568 | 0.0563 | 0.0497 | 0.0559 | 0.0536 | 0.0507 |  | 0.0277 | 0.0572 | 0.069
5 | L156E | 0.0546 | 0.057 |  |  | 0.0574 | 0.0568 | 0.0539 | 0.0513 | 0.0488 | 0.0553 | 0.0472 | 0.0549 |  | 0.0571 | 0.0532 | 0.0465 | 0.053 | 0.0444 |  | 0.0495
6 | V157D | 0.0452 |  | 0.0588 |  | 0.0447 | 0.0439 | 0.0602 | 0.028 | 0.0468 | 0.0382 |  |  |  | 0.142 | 0.0482 | 0.0586 | 0.0499 | 0.0537 |  | 
7 | V157L | 0.073 | 0.106 | 0.0739 |  | 0.0842 | 0.0769 | 0.0492 | 0.0789 | 0.0548 | 0.0895 | 0.104 |  | 0.0588 | 0.0565 | 0.0948 |  | 0.071 | 0.0407 |  | 0.0581
8 | D161A | 0.0556 | 0.0649 | 0.0749 | 0.064 |  | 0.0544 | 0.0581 | 0.0613 | 0.0491 |  | 0.0364 | 0.0454 | 0.0439 | 0.0542 | 0.064 | 0.0596 | 0.0083 | 0.0674 |  | 0.0575
9 | D161W | 0.078 | 0.059 | 0.048 | 0.0444 | 0.0547 |  | 0.0477 | 0.0529 | 0.0485 | 0.0558 | 0.0436 | 0.0448 |  | 0.0415 | 0.0585 | 0.0475 | 0.0503 | 0.0738 | 0.0554 | 
10 | G162P | 0.055 |  |  |  | 0.0594 | 0.064 |  | 0.0459 |  | 0.0505 | 0.0539 |  |  | 0.0532 | 0.0656 | 0.0569 | 0.0496 |  |  | 
11 | V165R | 0.0553 | 0.0524 | 0.0523 | 0.0449 | 0.0512 | 0.0288 | 0.069 |  | 0.0392 | 0.0548 | 0.0616 |  |  | 0.0565 | 0.0535 | 0.0508 | 0.0565 | 0.0587 | 0.053 | 
12 | V165T | 0.0676 | 0.0803 |  |  |  |  | 0.0553 |  | 0.052 | 0.0623 |  | 0.0512 |  | 0.0338 | 0.0781 | 0.0481 | 0.0494 | 0.0513 |  | 0.0776
13 | G166A | 0.0363 | 0.0519 | 0.0514 | 0.044 | 0.0505 | 0.0283 | 0.0715 | 0.051 | 0.0525 | 0.0479 | 0.0467 | 0.0379 | 0.0462 | 0.0622 | 0.0516 | 0.0527 | 0.074 |  |  | 0.0451
14 | G166D | 0.0393 | 0.0519 | 0.0464 | 0.0506 | 0.0361 | 0.0591 | 0.0536 |  | 0.0531 | 0.0543 |  | 0.064 | 0.093 | 0.0502 | 0.0521 | 0.0401 | 0.0479 | 0.0716 | 0.0474 | 0.0609
15 | G166M | 0.0435 | 0.0561 | 0.052 | 0.0472 | 0.049 |  | 0.0475 |  | 0.0395 | 0.0488 |  |  |  | 0.0452 | 0.0496 | 0.0497 | 0.0418 | 0.0507 |  | 0.0435
16 | S169M | 0.0763 | 0.0682 | 0.0617 | 0.0767 | 0.0818 |  | 0.0297 | 0.0699 |  | 0.0615 | 0.0607 |  | 0.0604 | 0.0623 | 0.0723 | 0.0558 | 0.0609 | 0.0618 | 0.0595 | 0.0413
17 | S169W | 0.0564 |  |  |  |  |  | 0.0683 | 0.0646 | 0.0458 |  | 0.0419 |  | 0.0615 | 0.0453 | 0.0603 | 0.0595 | 0.103 |  |  | 0.0512
18 | S171L | 0.0546 | 0.0513 | 0.0615 |  | 0.0782 | 0.0497 | 0.0524 | 0.0746 | 0.0668 |  | 0.0602 | 0.06 | 0.0545 | 0.0502 | 0.0609 | 0.0566 |  | 0.0548 |  | 
19 | T176K | 0.0742 | 0.0828 |  |  |  |  | 0.0618 | 0.0618 | 0.0607 | 0.0687 | 0.064 | 0.0455 |  | 0.0682 | 0.073 | 0.0551 | 0.0702 | 0.0406 |  | 
20 | N177S | 0.0832 | 0.0788 | 0.0574 | 0.0349 | 0.0741 | 0.0762 | 0.049 | 0.0675 | 0.0467 | 0.0701 | 0.0473 | 0.0328 | 0.0715 | 0.0486 | 0.0821 | 0.0484 | 0.0522 | 0.0507 | 0.0626 | 0.0316
21 | V183H | 0.0641 | 0.0688 |  | 0.0568 |  | 0.0564 | 0.0388 | 0.0268 | 0.0626 | 0.0504 | 0.0574 | 0.0496 | 0.057 | 0.0493 | 0.0609 | 0.0603 | 0.0528 |  |  | 
22 | K185G | 0.158 | 0.138 | 0.0601 |  |  |  | 0.0472 | 0.067 | 0.0621 |  | 0.0757 | 0.0518 |  | 0.0596 | 0.109 | 0.0645 | 0.0555 |  |  | 0.0663
23 | F187M | 0.145 | 0.125 |  |  | 0.111 | 0.0824 | 0.0389 |  | 0.0642 | 0.0997 | 0.0887 | 0.0488 |  | 0.056 | 0.0992 |  | 0.0733 | 0.0678 | 0.066 | 0.0576
